IC50 is the fitted dose that halves viability relative to control wells, and lower means more sensitive; where the fit passes the top or lowest dose, that dose stands as a limit. For AUC the same curve is integrated over the 256-fold range of doses and scaled to a fraction; values near 1 show little effect. For some of these results: A top dose marked as inferred was derived from the fitted curves, not read from the paper.
Tests used:
Assay in all cases: Viability of human cancer cell lines after 72 h of drug (GDSC screen)
[1] = compound: C=CC(=O)Nc1cc(-n2c(=O)ccc3cnc4ccc(-c5ccc(NS(C)(=O)=O)cc5)cc4c32)ccc1C [BMX-IN-1 (QL-XII-61)]; details: top dose 10 µM; top dose inferred
Description: (§1)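 Human cancer cell lines in 384-well plates, medium with 10% serum, drug for 72 h over a 256-fold dose range (nine 2-fold or five 4-fold steps up to the top dose). Adherent lines were fixed and stained with the nucleic acid dye Syto60, suspension lines read with resazurin; signal relative to control wells, capped at 0 and 100%. One two-parameter sigmoid per drug and line, fitted in a mixed model over all curves with the slope shared within a line.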

[2] = compound: CCc1cc(-c2n[nH]c(C)c2-c2ccc3c(c2)OCCO3)c(O)cc1O [CCT018159]; details: top dose 10 µM; top dose inferred
Description: as §1

[3] = compound: CN(C)Cc1cccc(N=C(c2ccccc2)c2c(O)[nH]c3cc(C(=O)N(C)C)ccc23)c1 [BIX02189]; details: top dose 20 µM; top dose inferred
Description: as §1

[4] = compound: COC(=O)CNC(=O)C(=O)OC [Dimethyloxalylglycine]; details: top dose 4000 µM; top dose inferred
Description: as §1

[5] = compound: COc1cccc2cc(-c3nc([C@H]4CC[C@H](C(=O)O)CC4)n4ncnc(N)c34)[nH]c12 [OSI-027]; details: top dose 20 µM
Description: as §1

[6] = compound: CS(=O)(=O)c1ccc(C(=O)Nc2ccc(Cl)c(-c3ccccn3)c2)c(Cl)c1 [Vismodegib]; details: top dose 10 µM; top dose inferred
Description: as §1

[7] = compound: Cc1cnc(Nc2ccc(F)cc2Cl)nc1-c1c[nH]c(C(=O)N[C@H](CO)c2cccc(Cl)c2)c1 [VX-11e]; details: top dose 5.12 µM; top dose inferred
Description: as §1

[8] = compound: Cc1cnc(Nc2ccc(OCCN3CCCC3)cc2)nc1Nc1cccc(S(=O)(=O)NC(C)(C)C)c1 [TG101348]; details: top dose 10.24 µM
Description: as §1

[9] = compound: O=C(c1ccc(C(=O)N2CCC(N3CCCC3)CC2)c(Nc2ccccc2)c1)N1CCC(N2CCCC2)CC1 [UNC1215]; details: top dose 1 µM; top dose inferred
Description: as §1

[10] = compound: C=CCNC1=C2C[C@@H](C)C[C@H](OC)[C@H](O)[C@@H](C)/C=C(\C)[C@H](OC(N)=O)[C@@H](OC)/C=C\C=C(/C)C(=O)NC(=CC1=O)C2=O [17-AAG]; details: top dose 1 µM
Description: as §1

[11] = compound: COc1cccc2c1C(=O)c1c(O)c3c(c(O)c1C2=O)C[C@@](O)(C(=O)CO)C[C@@H]3O[C@H]1C[C@H](N)[C@H](O)[C@H](C)O1 [Doxorubicin]; details: top dose 1.024 µM
Description: as §1

| Cell Line | AUC [1] | IC50 [1] [µM] | AUC [2] | IC50 [2] [µM] | AUC [3] | IC50 [3] [µM] | AUC [4] | IC50 [4] [µM] | AUC [5] | IC50 [5] [µM] | AUC [6] | IC50 [6] [µM] | AUC [7] | IC50 [7] [µM] | AUC [8] | IC50 [8] [µM] | AUC [9] | IC50 [9] [µM] | AUC [10] | IC50 [10] [µM] | AUC [11] | IC50 [11] [µM] |
| --- | --- | --- | --- | --- | --- | --- | --- | --- | --- | --- | --- | --- | --- | --- | --- | --- | --- | --- | --- | --- | --- | --- |
| MDA-MB-175-VII (breast, adherent) | 0.986 | > 10 | 0.913 | > 10 | 0.987 | > 20 | 0.904 | > 4000 | 0.547 | 1.71 | 0.988 | > 10 | 0.918 | > 5.12 | 0.957 | > 10.2 | 0.986 | > 1 | – | – | – | – |
| HCT-15 (large intestine, adherent) | 0.985 | > 10 | 0.779 | 4.33 | 0.951 | > 20 | 0.769 | 1600 | 0.7 | 4.74 | 0.987 | > 10 | 0.817 | 3.08 | 0.942 | > 10.2 | 0.985 | > 1 | – | – | – | – |
| HCT-116 (large intestine, adherent) | 0.984 | > 10 | 0.839 | 6.34 | 0.895 | > 20 | 0.608 | 488 | 0.525 | 1.45 | 0.952 | > 10 | 0.558 | 0.458 | 0.576 | 1.02 | 0.983 | > 1 | – | – | – | – |
| RL95-2 (endometrium, adherent) | 0.926 | > 10 | – | – | 0.945 | > 20 | 0.856 | 3160 | 0.943 | > 20 | 0.971 | > 10 | 0.771 | 1.94 | 0.967 | > 10.2 | 0.986 | > 1 | – | – | – | – |
| H2722 (mesothelioma, adherent) | 0.952 | > 10 | 0.925 | > 10 | 0.94 | > 20 | 0.606 | 517 | 0.797 | 11.6 | 0.984 | > 10 | 0.98 | > 5.12 | 0.822 | 7.57 | 0.982 | > 1 | – | – | – | – |
| U-2-OS (osteosarcoma, adherent) | 0.874 | > 10 | 0.866 | > 10 | 0.975 | > 20 | – | – | 0.875 | > 20 | – | – | 0.981 | > 5.12 | 0.941 | > 10.2 | 0.984 | > 1 | – | – | – | – |
| HSC-4 (head and neck, adherent) | 0.97 | > 10 | 0.793 | 6.37 | 0.96 | > 20 | 0.552 | 364 | 0.578 | 2.2 | 0.94 | > 10 | 0.951 | > 5.12 | 0.948 | > 10.2 | 0.971 | > 1 | – | – | – | – |
| HCC2998 (large intestine, adherent) | 0.855 | 7.61 | 0.953 | > 10 | 0.986 | > 20 | 0.816 | 2140 | 0.896 | > 20 | 0.962 | > 10 | 0.873 | 4.7 | 0.924 | > 10.2 | – | – | – | – | – | – |
| H2810 (mesothelioma, adherent) | 0.981 | > 10 | 0.943 | > 10 | – | – | – | – | – | – | – | – | – | – | – | – | 0.984 | > 1 | – | – | – | – |
| A375 (melanoma, adherent) | 0.961 | > 10 | 0.777 | 3.32 | – | – | 0.438 | – | 0.991 | > 20 | 0.895 | 8.37 | 0.623 | 0.653 | 0.991 | > 10.2 | 0.99 | > 1 | – | – | – | – |
| KARPAS-422 (B-cell lymphoma, suspension) | – | – | 0.985 | > 10 | 0.91 | > 20 | 0.421 | 152 | 0.234 | 0.214 | 0.985 | > 10 | 0.987 | > 5.12 | 0.666 | 1.84 | 0.98 | > 1 | 0.895 | > 1 | 0.678 | 0.199 |
| HC-1 (hairy cell leukaemia, suspension) | – | – | 0.877 | 9.32 | 0.818 | 10.7 | 0.603 | 473 | 0.397 | 0.658 | 0.985 | > 10 | 0.908 | > 5.12 | 0.585 | 1.08 | 0.985 | > 1 | 0.917 | > 1 | 0.436 | 0.043 |
| MC-IXC (neuroblastoma, adherent) | – | – | 0.953 | > 10 | 0.996 | > 20 | 0.347 | 106 | 0.233 | 0.277 | 0.94 | 9.56 | 0.996 | > 5.12 | 0.931 | 8.97 | 0.996 | > 1 | 0.919 | 0.788 | 0.438 | 0.0454 |
| HAL-01 (lymphoblastic leukaemia, suspension) | – | – | 0.713 | 2.3 | 0.86 | 13.7 | 0.381 | 122 | 0.091 | < 0.0781 | 0.929 | > 10 | 0.929 | > 5.12 | 0.647 | 1.55 | 0.977 | > 1 | 0.984 | > 1 | 0.721 | 0.248 |
| NCI-H209 (small cell lung carcinoma, suspension) | – | – | 0.957 | > 10 | 0.868 | > 20 | 0.705 | 993 | 0.523 | 1.45 | 0.982 | > 10 | 0.973 | > 5.12 | 0.822 | 6.55 | 0.973 | > 1 | 0.986 | > 1 | 0.446 | 0.0451 |
| IM-95 (stomach, adherent) | 0.984 | > 10 | 0.936 | > 10 | 0.93 | > 20 | 0.523 | 291 | 0.549 | 1.72 | – | – | 0.872 | > 5.12 | 0.861 | 9.62 | – | – | – | – | – | – |
| SW962 (urogenital system, adherent) | – | – | 0.855 | > 10 | 0.947 | > 20 | 0.594 | 483 | 0.729 | 6.66 | 0.969 | > 10 | 0.948 | > 5.12 | 0.872 | > 10.2 | 0.962 | > 1 | 0.453 | 0.0451 | 0.476 | 0.054 |
| LU-139 (small cell lung carcinoma, suspension) | – | – | 0.88 | > 10 | 0.935 | > 20 | 0.454 | 181 | 0.157 | < 0.0781 | 0.977 | > 10 | 0.954 | > 5.12 | 0.735 | 3.69 | 0.98 | > 1 | 0.877 | > 1 | 0.737 | 0.376 |
| NCI-H2444 (non-small cell lung carcinoma, adherent) | – | – | 0.965 | > 10 | 0.98 | > 20 | 0.948 | > 4000 | 0.977 | > 20 | 0.988 | > 10 | 0.962 | > 5.12 | 0.943 | > 10.2 | 0.987 | > 1 | 0.892 | > 1 | 0.977 | > 1.02 |
| WSU-NHL (lymphoid neoplasm, suspension) | – | – | 0.839 | 5.67 | 0.917 | > 20 | 0.839 | 2280 | 0.739 | 5.42 | 0.926 | > 10 | 0.59 | 0.547 | 0.838 | 5.77 | 0.99 | > 1 | 0.942 | > 1 | 0.654 | 0.162 |
| JSC-1 (B-cell lymphoma, suspension) | – | – | 0.921 | > 10 | 0.878 | 19.9 | 0.356 | 101 | 0.138 | 0.0933 | 0.986 | > 10 | 0.613 | 0.652 | 0.474 | 0.544 | 0.985 | > 1 | 0.794 | 0.453 | 0.396 | 0.0333 |
| KYSE-510 (oesophagus, adherent) | – | – | 0.809 | 4.19 | 0.984 | > 20 | 0.407 | 145 | 0.957 | > 20 | 0.957 | > 10 | 0.984 | > 5.12 | 0.978 | > 10.2 | 0.992 | > 1 | 0.484 | 0.0569 | 0.277 | 0.017 |
| G-402 (soft tissue, adherent) | – | – | 0.875 | > 10 | 0.905 | > 20 | 0.619 | 594 | 0.565 | 1.99 | 0.946 | > 10 | 0.883 | > 5.12 | 0.84 | > 10.2 | 0.974 | > 1 | 0.514 | 0.0691 | 0.564 | 0.101 |
| JVM-2 (lymphoid neoplasm, suspension) | – | – | 0.909 | > 10 | 0.891 | > 20 | 0.85 | > 4000 | 0.906 | > 20 | 0.951 | > 10 | 0.941 | > 5.12 | 0.761 | 4.45 | 0.968 | > 1 | 0.877 | > 1 | 0.695 | 0.259 |
| P31-FUJ (acute myeloid leukaemia, suspension) | – | – | 0.995 | > 10 | 0.992 | > 20 | 0.919 | 3510 | 0.901 | 14.9 | 0.994 | > 10 | 0.985 | > 5.12 | 0.925 | 9.56 | 0.994 | > 1 | 0.995 | > 1 | 0.99 | > 1.02 |
